Source: patent US9193687B2 (priority 2007, dated 2015)

test system: CCRF-CEM/VBL; assay: not given; details: not given

Row | Structure (SMILES) | Resistance of CCRF-CEM/VBL compared with IC50 of the parent cell line
1 | CC[C@]1(O)C[C@@H]2CN(CCc3c([nH]c4ccccc34)[C@@](C(=O)OC)(c3cc4c(cc3OC)N(C)[C@H]3[C@@](O)(C(=O)OC)[C@H](OC(C)=O)[C@]5(CC)C=CCN6CC[C@]43[C@@H]65)C2)C1 [Vinblastine, reference compound] | 680 fold

same assay, conditions: read-out: Cytotoxicity IC50, CCRF-CEM/VBL; Table 1; XTT, 72-hr incubation

Row | Structure (SMILES) | IC50
2 | Cc1cccc2c(Nc3cc(COC(=O)Nc4ccc(N(CCCl)CCCl)cc4)cc(NC(=O)OCC(C)C)c3)c3ccccc3nc12 [BO-1245] | 6420 nM
3 | Cc1ccc(Nc2c3ccccc3nc3ccccc23)cc1NC(=O)Nc1ccc(N(CCCl)CCCl)cc1 [BO-1150] | 30 nM

test system: CCRF-CEM/VBL; assay: cells; details: Homo sapiens, 72 h, read-out: Cytotoxicity IC50, CCRF-CEM/VBL

Row | Structure (SMILES) | IC50
4 | Cc1cccc2c(Nc3cc(CO)cc(NC(=O)Nc4ccc(N(CCCl)CCCl)cc4)c3)c3ccccc3nc12 [BO-1050, 1-{4-[bis(2-chloroethyl)amino]phenyl}-3-[3-hydroxymethyl-5-(4-methylacridin-9-ylamino)phenyl]urea] | 1800 nM
5 | O=C(Nc1ccc(N(CCCl)CCCl)cc1)Nc1cc(CO)cc(Nc2c3ccccc3nc3ccccc23)c1 [BO-1037, 1-[3-(acridin-9-ylamino)-5-hydroxymethylphenyl]-3-{4-[bis(2-chloroethyl)amino]phenyl}urea] | 64100 nM
6 | CC[C@]1(O)C[C@@H]2CN(CCc3c([nH]c4ccccc34)[C@@](C(=O)OC)(c3cc4c(cc3OC)N(C)[C@H]3[C@@](O)(C(=O)OC)[C@H](OC(C)=O)[C@]5(CC)C=CCN6CC[C@]43[C@@H]65)C2)C1 [Vinblastine, reference compound] | 500 nM
7 | CCOC(=O)Nc1cc(COC(=O)Oc2ccc(N(CCCl)CCCl)cc2)cc(Nc2c3ccccc3nc3ccccc23)c1 [BO-1065, carbonic acid 3-(acridin-9-yl-amino)-5-ethoxycarbonylaminobenzyl ester 4-[bis(2-chloroethyl)amino]phenyl ester] | 480 nM
8 | COc1ccc2nc(C)cc(Nc3cccc(NC(=O)Nc4ccc(N(CCCl)CCCl)cc4)c3)c2c1 [BO-1547] | 4130 nM
9 | Cc1ccc(Nc2c3ccccc3nc3ccccc23)cc1NC(=O)Oc1ccc(N(CCCl)CCCl)cc1 [BO-1171] | 160 nM
10 | O=C(NNc1cc(-c2ccccc2)nc2cc3c(cc12)OCO3)Nc1ccc(N(CCCl)CCCl)cc1 [BO-1391] | 500 nM
11 | COc1cc(NC(=O)Oc2ccc(N(CCCl)CCCl)cc2)cc(Nc2c3ccccc3nc3ccccc23)c1 [BO-1066, [3-(acridin-9-ylamino)-5-methoxyphenyl]carbamic acid 4-[bis(2-chloroethyl)amino]phenyl ester] | 110 nM
12 | Cc1ccc(Nc2c3ccccc3nc3c(C)cccc23)cc1NC(=O)Nc1ccc(N(CCCl)CCCl)cc1 [BO-1051] | 130 nM
13 | O=C(Nc1ccc(N(CCCl)CCCl)cc1)Nc1cccc(Nc2cc(-c3ccccc3)nc3ccccc23)c1 [BO-2295] | 2110 nM
14 | O=C(Nc1ccc(Nc2cc(-c3ccccc3)nc3ccccc23)cc1)Nc1ccc(N(CCCl)CCCl)cc1 [BO-2294] | 2530 nM
15 | COc1ccc2nc(C)cc(NNC(=O)Nc3ccc(N(CCCl)CCCl)cc3)c2c1 [BO-1228, N-{4-[bis(2-chloroethyl)amino]phenyl}-2-(6-methoxy-2-methyl-4-quinolinyl)hydrazinecarboxamide] | 2020 nM
16 | Cc1cc(NNC(=O)Nc2ccc(N(CCCl)CCCl)cc2)c2cc(N(C)C)ccc2n1 [BO-1242] | 6950 nM
17 | COc1ccc(Nc2c3ccccc3nc3ccccc23)cc1NC(=O)Oc1ccc(N(CCCl)CCCl)cc1 [BO-1172] | 120 nM
18 | Cc1cccc2c(Nc3cc(CO)cc(NC(=O)Oc4ccc(N(CCCl)CCCl)cc4)c3)c3ccccc3nc12 [BO-1063, [3-hydroxymethyl-5-(4-methylacridin-9-ylamino)phenyl]carbamic acid 4-[bis(2-chloroethyl)-amino]phenyl ester] | 130 nM
19 | O=C(Nc1ccc(N(CCCl)CCCl)cc1)Nc1c2ccccc2nc2ccccc12 [BO-1034, 1-acridin-9-yl-3-{4-[bis(2-chloroethyl)amino]phenyl}urea] | 380 nM
20 | Cc1cc(NNC(=O)Nc2ccc(N(CCCl)CCCl)cc2)c2ccccc2n1 [BO-1233, N-{4-[bis(2-chloroethyl)amino]phenyl}-2-(2-methyl-4-quinolinyl)hydrazinecarboxamide] | 850 nM
21 | COc1ccc(Nc2c3ccccc3nc3ccccc23)cc1NC(=O)Nc1ccc(N(CCCl)CCCl)cc1 [BO-1148] | 50 nM
22 | COc1ccc(Nc2c3ccccc3nc3c(C)cccc23)cc1NC(=O)Oc1ccc(N(CCCl)CCCl)cc1 [BO-1213] | 190 nM
23 | Cc1ccc(NC(=O)Nc2ccc(N(CCCl)CCCl)cc2)cc1Nc1c2cccc(C)c2nc2c(C(=O)NCCN(C)C)cccc12 [BO-1053, 9-[5-(3-{4-[bis(2-chloroethyl)amino]phenyl}ureido)-2-methyl-phenylamino]-5-methyl-acridine-4-carboxylic acid (2-dimethylaminoethyl)amide] | 300 nM
24 | Cc1ccc(NC(=O)Nc2ccc(N(CCCl)CCCl)cc2)cc1Nc1c2ccccc2nc2c(C)cccc12 [BO-1149] | 20 nM
25 | O=C(Nc1cc(CO)cc(Nc2c3ccccc3nc3ccccc23)c1)Oc1ccc(N(CCCl)CCCl)cc1 [BO-1062, [3-(acridin-9-ylamino)-5-hydroxymethylphenyl]carbamic acid 4-[bis(2-chloroethyl)amino]phenyl ester] | 180 nM
26 | O=C(NNc1cc(-c2ccccc2)nc2ccccc12)Nc1ccc(N(CCCl)CCCl)cc1 [BO-1393] | 1220 nM
27 | COc1ccc(Nc2c3ccccc3nc3c(C)cccc23)cc1NC(=O)Nc1ccc(N(CCCl)CCCl)cc1 [BO-1154] | 20 nM
28 | Cc1cc(NC(=O)Nc2ccc(N(CCCl)CCCl)cc2)c2ccccc2n1 [BO-1038, 1-{4-[bis(2-chloroethyl)amino]phenyl}-3-(2-methylquinolin-4-yl)urea] | 660 nM
29 | Cc1ccc(Nc2c3ccccc3nc3c(C)cccc23)cc1NC(=O)Oc1ccc(N(CCCl)CCCl)cc1 [BO-1064, [2-methyl-5-(4-methylacridin-9-ylamino)phenyl]-carbamic acid 4-[bis(2-chloroethyl)amino]phenyl ester] | 160 nM
30 | Cc1cc(NC(=O)Nc2ccc(N(CCCl)CCCl)cc2)cc(Nc2c3ccccc3nc3ccccc23)c1 [BO-1079, 1-[3-(acridin-9-ylamino)-5-methylphenyl]-3-{4-[bis(2-chloroethyl)amino]phenyl}urea] | 600 nM

same assay, conditions: Homo sapiens, read-out: Cytotoxicity IC50, CCRF-CEM/VBL

Row | Structure (SMILES) | IC50
31 | O=C(CN1CCCC1)Nc1cccc(NC(=O)Nc2ccc(N(CCCl)CCCl)cc2)c1 [BO-2151, N-(3-(3-(4-(bis(2-chloroethyl)amino)phenyl)ureido)-phenyl)-2-(pyrrolidin-1-yl)acetamide] | 970 nM
32 | CN(C)CC(=O)Nc1cccc(NC(=O)Nc2ccc(N(CCCl)CCCl)cc2)c1 [BO-2189, N-(3-(3-(4-(bis(2-chloroethyl)amino)phenyl)ureido)phenyl)-2-(dimethyl-amino)acetamide] | 2700 nM
33 | O=C(CCN1CCCCC1)Nc1ccc(NC(=O)Nc2ccc(N(CCCl)CCCl)cc2)cc1 [BO-2057] | 6200 nM
34 | O=C(CN1CCCC1)Nc1ccc(NC(=O)Nc2ccc(N(CCCl)CCCl)cc2)cc1 [BO-2093] | 2000 nM
